Measurements reported in the supplement of paper PMC9446081.
The campaign covered roughly 39,000 compounds. About 220 (0.56%) showed activity. The list shows a part of the results.

System: Escherichia coli K-12 BW25113
Assay: relative growth (OD600 normalised to plate interquartile mean) (fraction); higher = less growth inhibition, active = 0.2 or less
Settings: 50 µM; LB; incubation time: overnight (16-24 h)
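Note: static incubation at 37 °C against the wild-type strain, values averaged over two biological replicates.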

Row | Compound | relative growth
1 | O=C(Cn1nnc2ccccc2c1=O)Nc1nnc[nH]1 | inactive: 0.982
2 | C=C1COC(=O)[C@@H]2[C@@H](CO)[C@@H](O)C[C@H]12 | inactive: 1.02
3 | CCC/C=C1\OC(=O)c2ccccc21 | inactive: 1.01
4 | CN(Cc1ccccc1)C[C@H]1C[C@H](c2ccccc2)O[C@H](c2ccc(NC(=O)CCCCCCC(=O)O)cc2)O1 | inactive: 0.995
5 | Cc1noc(C)c1S(=O)(=O)N(C)C[C@@H]1Oc2ccc(NC(=O)Cn3cnnn3)cc2C(=O)N([C@@H](C)CO)C[C@@H]1C | inactive: 0.995
6 | CS(=O)(=O)NC[C@@]12COC[C@H]1CN(C(=O)c1cnccn1)C2 | inactive: 0.93
7 | C[C@@H]1CN([C@H](C)CO)C(=O)c2cc(NC(=O)Cc3ccccc3)ccc2O[C@H]1CN(C)Cc1ccc(Oc2ccccc2)cc1 | inactive: 1.02
8 | C[C@@H]1CN([C@@H](C)CO)C(=O)Cc2cc(NC(=O)CCN3CCOCC3)ccc2O[C@@H]1CN(C)S(C)(=O)=O | inactive: 0.967
9 | C[C@@H]1CN([C@@H](C)CO)C(=O)Cc2cc(NS(=O)(=O)c3ccccc3)ccc2O[C@H]1CN(C)S(=O)(=O)c1ccccc1 | inactive: 0.931
10 | C[C@H](CO)N1C[C@H](C)[C@@H](CN(C)Cc2ccc(Oc3ccccc3)cc2)Oc2c(NC(=O)Nc3ccc4c(c3)OCO4)cccc2C1=O | inactive: 1
11 | C[C@@H]1CCCCO[C@H](CN(C)Cc2ccc(Cl)c(Cl)c2)[C@@H](C)CN([C@H](C)CO)C(=O)c2cc(NS(=O)(=O)c3ccccc3)ccc2O1 | inactive: 0.94
12 | C[C@H]1CN([C@@H](C)CO)C(=O)c2cc(NC(=O)Cc3cn(C)c4ccccc34)ccc2O[C@@H]1CN(C)Cc1ccc(C(=O)Nc2ccccc2N)cc1 | inactive: 0.966
13 | C[C@@H]1CCCCO[C@H](CN(C)Cc2ccc(C(=O)O)cc2)[C@H](C)CN([C@@H](C)CO)C(=O)c2cc(NC(=O)Nc3cccc4ccccc34)ccc2O1 | inactive: 1.01
14 | C[C@@H]1CN([C@@H](C)CO)C(=O)Cc2cc(NC(=O)Nc3ccc(C(F)(F)F)cc3)ccc2O[C@H]1CN(C)C(=O)Nc1ccc(C(F)(F)F)cc1 | inactive: 1.01
15 | CCCNC(=O)Nc1ccc2c(c1)C(=O)N(C)C[C@@H](OC)[C@@H](C)CN(C(=O)C1CCOCC1)[C@H](C)CO2 | inactive: 0.975
16 | CO[C@@H]1CN(C)C(=O)c2ccc(NS(=O)(=O)c3cn(C)cn3)cc2OC[C@@H](C)N(Cc2cccc(F)c2)C[C@H]1C | inactive: 1.01
17 | Cc1noc(C)c1NC(=O)N(C)C[C@@H]1Oc2ccc(NC(=O)c3ccncc3)cc2CC(=O)N([C@@H](C)CO)C[C@H]1C | inactive: 0.983
